Where “and” joins values, the source holds several entries; their conditions need not be identical. Equal values may be shown once. Inconclusive results, whose numbers are uncertain, are shown with a selection of clear calls. Potencies beside an inconclusive call are fits to weak or partial responses and may not hold up. Calls of active or inactive are those of the source. Calls come from the whole dose curve; as a rule, active = well fitted curve in the direction sought with a large enough effect; inconclusive = small, poorly fitted or top-dose-only effect, or another doubt; inactive = no such curve, though single readings can be large; an effect the other way counts as inactive or inconclusive.
Tests used:
[1] = Viability qHTS for spleen associated tyrosine kinase inhibitor (SYKi) naive MV4-11 cells (AID 1963823); details: MV4-11 AML viability, CellTiter-Glo luminescence, 72 h; viability (% of control): at 45 µM (top of the series); note: nearly all actives have a fitted effect of over 40% in size
Method in brief: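 Luminescence from CellTiter-Glo, developed 10 min at room temperature, gave viability of MV4-11 cells never exposed to SYK inhibitor. Cells (500/well) had been incubated with compounds for 72 hr under standard culture conditions.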

[2] = Quantitative highthroughput screen to assess conditional lethalithy of NOMO1 cells grown in RPMI1640 with untreated serum (RPMI+s) (AID 1963876); details: NOMO1 AML cells in RPMI+serum, CellTiter-Glo viability, 48 h; viability: at 45.8 µM (top of the series); note: nearly all actives have a fitted effect of over 35% in size;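 for Viability: 100% = DMSO wells and 0% = empty wells without cells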
Method in brief: (§1)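 Each medium arm—HPLM with 10% dialyzed FBS, or RPMI1640 with 5 mM glucose and 10% untreated or dialyzed FBS—was screened against an 11-point, 3-fold compound titration for 48 h at 37 °C, with CellTiter-Glo luminescence as endpoint.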

[3] = Quantitative highthroughput screen to assess conditional lethalithy of P12 Ichikawa cells grown in Human Plasma-Like Medium with dialyzed fetal bovine serum (HPLM+ds) (AID 1963879); details: Potency: viability; note: nearly all actives have a fitted effect of over 35% in size
Method in brief: as §1

[4] = Quantitative highthroughput screen to assess conditional lethalithy of P12 Ichikawa cells grown in RPMI1640 with dialyzed fetal bovine serum (RPMI+ds) (AID 1963880); details: Potency: P12-Ichikawa viability; note: nearly all actives have a fitted effect of over 35% in size;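 for Viability: 100% = DMSO wells and 0% = empty wells on each plate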
Method in brief: as §1

[5] = Quantitative highthroughput screen to assess conditional lethalithy of P12 Ichikawa cells grown in RPMI1640 with untreated serum (RPMI+s) (AID 1963881); details: Potency: viability; note: nearly all actives have a fitted effect of over 35% in size;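 for Viability: 100% = DMSO wells and 0% = empty wells without cells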
Method in brief: as §1

[6] = Quantitative highthroughput screen to assess conditional lethalithy of SEM cells grown in RPMI1640 with unreated serum (RPMI+s) (AID 1963883); details: SEM B-ALL cells, CellTiter-Glo viability, 48 h; viability: at 45.8 µM (top of the series); note: nearly all actives have a fitted effect of over 35% in size;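 for Viability: 100% = DMSO wells and 0% = empty wells without cells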
Method in brief: as §1

[7] = Quantitative highthroughput screen to assess conditional lethalithy of SEM cells grown in RPMI1640 with dialyzed fetal bovine serum (RPMI+ds) (AID 1963884); details: SEM B-ALL cells, RPMI+dialyzed FBS, CellTiter-Glo viability, 48 h; viability: at 45.8 µM (top of the series); note: nearly all actives have a fitted effect of over 35% in size;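 for Viability: 100% = DMSO control wells and 0% = empty wells without cells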
Method in brief: as §1

[8] = Cellular viability qHTS for adrenocortical cancer (ACC) cell line SW-13 (AID 1963989); details: SW-13 ACC cells viability, CellTiter-Glo, 48 h; activity (max response): hits give low values; note: nearly all actives have a fitted effect of over 65% in size;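 for activity (max response): cells grown in serum-free medium with ITS supplement; % is set by controls: 0 for no effect and ±100 for the full control effect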
Method in brief: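 Here, serum-free SW-13 cultures were dosed up to 46 uM. Following 48 h, ATP-dependent luminescence (CellTiter-Glo) reported viable cells, and logistic modeling produced IC50 values.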

[9] = Quantitative highthroughput screen to assess conditional lethalithy of SEM cells grown in Human Plasma-Like Medium with dialyzed fetal bovine serum (HPLM+ds) (AID 1963882); note: nearly all actives have a fitted effect of over 35% in size
Method in brief: as §1

[10] = Cellular viability qHTS for adrenocortical cancer (ACC) cell line NCI-H295R (AID 1963990); details: CellTiter-Glo ATP luminescence, 48 h; activity change, negative = viability loss: at 46.1 µM (top of the series); note: nearly all actives have a fitted effect of over 60% in size;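 for activity change, negative = viability loss: 0% = DMSO only wells and -100% = full killing with cytotoxic reference compound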
Method in brief: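 Viability of NCI-H295R after 48 h of treatment (final up to 46 uM) measured through cellular ATP luminescence.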

[11] = Quantitative highthroughput screen to assess conditional lethalithy of NOMO1 cells grown in RPMI1640 with dialyzed fetal bovine serum (RPMI+ds) (AID 1963877); note: nearly all actives have a fitted effect of over 30% in size;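 for Viability: 100% = DMSO control wells and 0% = empty wells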
Method in brief: as §1

[12] = Quantitative highthroughput screen to assess conditional lethalithy of NOMO1 cells grown in Human Plasma-Like Medium with dialyzed fetal bovine serum (HPLM+ds) (AID 1963878); details: NOMO1 AML cells in HPLM+ds, CellTiter-Glo viability, 48 h; viability: at 45.8 µM (top of the series); note: nearly all actives have a fitted effect of over 35% in size;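 for Viability: 100% = DMSO wells and 0% = empty wells on each plate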
Method in brief: as §1
Potency is the fitted concentration of half-maximal effect; tags give direction and shape of the fitted curve.

CNCc1ccc(-c2[nH]c3cc(F)cc4c3c2CCNC4=O)cc1
inactive: Potency [2] | Potency [3] | Potency [4] | Potency [5] | Potency [7]
inconclusive: Potency [6] 0.59 µM [rising, full curve, poor fit] | Potency [8] 25.1 µM [cytotoxic, single point]
active: Potency [1] 13 µM and 16.6 µM

CCC(c1ccc(O)cc1)C(CC)c1ccc(O)cc1 (stereo not drawn)
active: Potency [1] 20.9 µM | Potency [10] 15.8 µM
inconclusive: Potency [9] 0.0017 µM [rising, full curve, poor fit] | Potency [6] 0.001 µM | Potency [7] 33.2 µM [cytotoxic, single point]
inactive: Potency [2] | Potency [3] | Potency [5]

Cc1nccn1CC1CCc2c(c3ccccc3n2C)C1=O (stereo not drawn)
inconclusive: Potency [1] 21.1 µM [cytotoxic, single point]
inactive: Potency [11]

C#Cc1cccc(Nc2ncnc3cc(OCCOC)c(OCCOC)cc23)c1
active: Potency [1] 3.76 µM and 1.86 µM | Potency [8] 4.11 µM and 8.91 µM
inconclusive: Potency [11] 37.2 µM [cytotoxic, single point] | Potency [12] 20.9 µM [cytotoxic, single point] | Potency [3] 23.5 µM [cytotoxic, single point] | Potency [4] 33.2 µM [cytotoxic, single point] | Potency [5] 37.2 µM [cytotoxic, single point] | Potency [9] 33.2 µM [cytotoxic, single point] | Potency [6] 8.33 µM [cytotoxic, partial curve, poor fit] | Potency [7] 18.7 µM [cytotoxic, partial curve] | Potency [10] 5.62 µM [cytotoxic, partial curve]

CCOC(=O)N1CCC(=C2c3ccc(Cl)cc3CCc3cccnc32)CC1
inactive: Potency [2] | Potency [3] | Potency [9]
inconclusive: Potency [1] 10.6 µM [cytotoxic, partial curve] | Potency [10] 0.651 µM [cytotoxic, full curve, poor fit]
active: Potency [7] 11.8 µM | Potency [8] 4.61 µM

CO[C@H]1C[C@@H]2CC[C@@H](C)[C@@](O)(O2)C(=O)C(=O)N2CCCC[C@@H]2C(=O)O[C@H]([C@@H](C)C[C@@H]2CC[C@H](O)[C@H](OC)C2)CC(=O)[C@H](C)C=C(C)[C@@H](O)[C@@H](OC)C(=O)[C@H](C)C[C@H](C)C=CC=CC=C1C
inactive: Potency [11] | Potency [12]
inconclusive: Potency [1] 20.9 µM [cytotoxic, partial curve, poor fit] | Potency [3] 20.9 µM [cytotoxic, partial curve, poor fit] | Potency [4] 18.7 µM [cytotoxic, partial curve, poor fit] | Potency [5] 3.32 µM [cytotoxic, partial curve, poor fit] | Potency [9] 0.0187 µM [cytotoxic, full curve, poor fit] | Potency [6] 0.209 µM [cytotoxic, partial curve] | Potency [7] 37.2 µM [cytotoxic, single point] | Potency [8] 28.2 µM [cytotoxic, partial curve]
active: Potency [10] 28.2 µM

CN(C)C(=O)[C@H](O)[C@H](Cc1ccccc1)NC(=O)c1cc2cc(Cl)ccc2[nH]1
inconclusive: Potency [1] 20.6 µM [cytotoxic, partial curve] | Potency [11] 0.0037 µM [rising, full curve, poor fit] | Potency [12] 0.332 µM [rising, partial curve] | Potency [3] 16.6 µM [cytotoxic, partial curve] | Potency [4] 14.8 µM [cytotoxic, partial curve] | Potency [5] 11.8 µM [cytotoxic, partial curve] | Potency [8] 35.5 µM [cytotoxic, single point] | Potency [10] 22.4 µM [cytotoxic, single point]
active: Potency [9] 2.09 µM | Potency [6] 2.64 µM | Potency [7] 2.35 µM

S=c1nc[nH]c2nc[nH]c12
active: Potency [11] 1.48 µM | Potency [12] 5.9 µM | Potency [4] 0.743 µM | Potency [8] 8.2 µM and 15.8 µM | Potency [10] 2.06 µM and 4.47 µM
inconclusive: Potency [1] 2.11 µM [cytotoxic, full curve] and 934 nM [cytotoxic, full curve] | Potency [3] 0.935 µM [cytotoxic, full curve] | Potency [5] 0.662 µM [cytotoxic, full curve] | Potency [6] 1.48 µM [cytotoxic, full curve] | Potency [7] 0.743 µM [cytotoxic, full curve]

CC(C)C(=O)Oc1ccc(CO)cc1[C@H](CCN(C(C)C)C(C)C)c1ccccc1
inactive: Potency [2] | Potency [3]
inconclusive: Potency [1] 8.2 µM [cytotoxic, partial curve, poor fit] | Potency [9] 0.0013 µM [rising, full curve] | Potency [6] 0.0012 µM [rising, full curve, poor fit] | Potency [7] 0.0012 µM [rising, full curve]

CC[C@H](C=C[C@@H](C)[C@H]1CC[C@H]2[C@@H]3CC=C4C[C@@H](O)CC[C@]4(C)[C@@H]3CC[C@]12C)C(C)C
inactive: Potency [1] | Potency [2] | Potency [4] | Potency [5] | Potency [9] | Potency [6] | Potency [10]

Cn1cc(-c2ccc3nnc(Sc4ccc5ncccc5c4)n3n2)cn1
inconclusive: Potency [1] 13.2 µM [cytotoxic, partial curve]
inactive: Potency [2] | Potency [5] | Potency [6]

OCCN(CCO)c1nc(N2CCCCC2)c2nc(N(CCO)CCO)nc(N3CCCCC3)c2n1
inconclusive: Potency [1] 16.8 µM [cytotoxic, partial curve, poor fit] and 14.8 µM [cytotoxic, partial curve] | Potency [11] 37.2 µM [cytotoxic, single point] | Potency [12] 33.2 µM [cytotoxic, single point] | Potency [3] 20.9 µM [cytotoxic, partial curve, poor fit] | Potency [4] 37.2 µM [cytotoxic, single point] | Potency [5] 37.2 µM [cytotoxic, single point] | Potency [6] 33.2 µM [cytotoxic, single point] | viability [7] 60.7% [cytotoxic]

CCN1C[C@H](C)n2c(c(O)c3c(=O)n(Cc4ccc(F)c(Cl)c4)nc(C(=O)NC)c32)C1=O
active: Potency [11] 16.6 µM | Potency [12] 16.6 µM
inactive: Potency [1]

COc1cc2c(cc1-c1c(C)noc1C)ncc1[nH]c(=O)n([C@H](C)c3ccccn3)c12
inconclusive: Potency [11] 2.64 µM [cytotoxic, full curve] | Potency [12] 2.35 µM [cytotoxic, full curve] | Potency [4] 5.9 µM [cytotoxic, partial curve] | Potency [5] 3.32 µM [cytotoxic, full curve] | Potency [10] 2.51 µM [cytotoxic, full curve]
active: Potency [1] 0.206 µM | Potency [3] 5.9 µM

O=c1[nH]c(=O)n(C2CCCO2)cc1F (stereo not drawn)
inactive: activity (max response) [8] 4.88%
inconclusive: Potency [1] 18.6 µM [cytotoxic, partial curve] | Potency [2] 0.0024 µM [rising, full curve] | Potency [4] 0.0021 µM [rising, full curve, poor fit] | Potency [5] 0.0024 µM [rising, full curve] | Potency [7] 0.0024 µM [rising, full curve]

CNC(=O)Nc1ccc(-c2nc(N3CC4CCC(C3)O4)c3cnn(C4CCC5(CC4)OCCO5)c3n2)cc1
inconclusive: Potency [11] 0.0469 µM [cytotoxic, full curve] | Potency [12] 0.148 µM [cytotoxic, full curve] | Potency [3] 0.0209 µM [cytotoxic, full curve, poor fit] | Potency [4] 0.0332 µM [cytotoxic, full curve] | Potency [5] 0.0093 µM [cytotoxic, full curve] | Potency [9] 0.0418 µM [cytotoxic, full curve] | Potency [7] 0.0469 µM [cytotoxic, full curve] | Potency [8] 0.224 µM [cytotoxic, full curve]
active: Potency [1] 0.0742 µM | Potency [6] 0.0418 µM | Potency [10] 0.282 µM

CCC(C)N(C)C(=O)c1cc2ccccc2c(-c2ccccc2Cl)n1 (stereo not drawn)
inactive: Potency [2] | Potency [3] | Potency [6]
inconclusive: Potency [1] 16.6 µM [cytotoxic, partial curve] | Potency [7] 37.2 µM [cytotoxic, single point] | Potency [10] 35.5 µM [cytotoxic, single point]

Cc1ccc(C(=O)Nc2cccc(C(F)(F)F)c2)cc1-c1ccc2nc(NCCN3CCOCC3)ncc2c1
active: Potency [1] 184 nM and 372 nM | Potency [2] 5.9 µM | Potency [6] 4.18 µM | Potency [7] 4.18 µM | Potency [10] 22.4 µM
inconclusive: Potency [3] 14.8 µM [cytotoxic, partial curve] | Potency [4] 9.35 µM [cytotoxic, partial curve]

From PubChem BioAssay (NCATS)
